# Data reported in the supplement of paper PMC8728848.
# Some of the results follow.
# B1: Epa23 (Candida glabrata) (protein)
# chain: MGSSHHHHHHSSGLVPRGSHMIPNPFEGTINNFPSGCSPNHGLYNRGLTMELYNYSYIHPQSIQSYFNTSTLKKMEKGQCWDPSYLDVNYPRTGYKTHNRFAKVNGIDGILDFEFNPTRSCVPSKGQLPQNYNYPLQFTLSNFTMLLYGYFKPKVTAKHTFTIFADDLLFLNFGAGNAFDCCQQQDTIDDFGNYQAYALWGSDTQQNTLTVNLDANIYYPIRMFYNNRDFKGALNMYFTTDESNTKINDFSGYLFNIPDSSEGCPAHISYETECGNVSG
# What was measured:
# Experiment in all cases: glycan array binding signal (z-score within array); higher = stronger binding
# Conditions in all cases: glycan notation: IUPAC condensed, linker removed
# [1] = target: GlcNAc(b1-4)GlcNAc(b1-4)GlcNAc(b1-4)GlcNAc(b1-4)GlcNAc
# In short: (§1)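 From the Consortium for Functional Glycomics database, 3228 arrays were curated, keeping only those whose protein sequence was available. Binding is given as a within-array Z-score averaged across arrays sharing a protein sequence and across linkers. Negative Z-scores can be read as non-binding.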
# [2] = target: GlcNAc(b1-4)GlcNAc(b1-4)GlcNAc(b1-4)GlcNAc(b1-4)GlcNAc(b1-4)GlcNAc
# In short: as §1
# [3] = target: GlcNAc(b1-4)[GlcNAc(b1-6)]GalNAc
# In short: as §1
# [4] = target: GlcNAc(b1-6)Gal(b1-4)GlcNAc
# In short: as §1
# [5] = target: GlcNAc(b1-6)GalNAc
# In short: as §1
# [6] = target: GlcNAc6S(b1-3)Gal(b1-4)GlcNAc
# In short: as §1
# [7] = target: Kdn(a2-3)Gal(b1-3)GalNAc
# In short: as §1
# [8] = target: Kdn(a2-3)Gal(b1-3)GlcNAc
# In short: as §1
# [9] = target: Kdn(a2-3)Gal(b1-4)Glc
# In short: as §1
# [10] = target: Kdn(a2-3)Gal(b1-4)GlcNAc
# In short: as §1
# [11] = target: Kdn(a2-3)Gal(b1-4)[Fuc(a1-3)]GlcNAc
# In short: as §1
# [12] = target: Kdn(a2-6)Gal(b1-4)GlcNAc
# In short: as §1
# [13] = target: Man(a1-2)Man(a1-2)Man(a1-3)Man
# In short: as §1
# [14] = target: Man(a1-2)Man(a1-2)Man(a1-6)[Man(a1-3)]Man
# In short: as §1
# [15] = target: Man(a1-2)Man(a1-3)Man
# In short: as §1
# [16] = target: Man(a1-2)Man(a1-3)[Man(a1-2)Man(a1-6)]Man
# In short: as §1
# [17] = target: Man(a1-2)Man(a1-3)[Man(a1-2)Man(a1-6)]Man(a1-6)[Man(a1-2)Man(a1-2)Man(a1-3)]Man
# In short: as §1
# [18] = target: Man(a1-2)Man(a1-3)[Man(a1-2)Man(a1-6)]Man(a1-6)[Man(a1-2)Man(a1-2)Man(a1-3)]Man(b1-4)GlcNAc(b1-4)GlcNAc
# In short: as §1
# [19] = target: Man(a1-2)Man(a1-3)[Man(a1-6)]Man(a1-6)[Man(a1-2)Man(a1-3)]Man(b1-4)GlcNAc(b1-4)GlcNAc
# In short: as §1
# [20] = target: Man(a1-2)Man(a1-6)[Man(a1-3)]Man(a1-6)[Man(a1-2)Man(a1-2)Man(a1-3)]Man
# In short: as §1
# [21] = target: Man(a1-2)Man(a1-6)[Man(a1-3)]Man(a1-6)[Man(a1-2)Man(a1-2)Man(a1-3)]Man(b1-4)GlcNAc(b1-4)GlcNAc
# In short: as §1
# [22] = target: Man(a1-3)[Man(a1-6)]Man
# In short: as §1
# [23] = target: Man(a1-3)[Man(a1-6)]Man(a1-6)[Man(a1-2)Man(a1-3)]Man(b1-4)GlcNAc(b1-4)GlcNAc
# In short: as §1
# [24] = target: Man(a1-3)[Man(a1-6)]Man(a1-6)[Man(a1-3)]Man
# In short: as §1
# [25] = target: Man(a1-3)[Man(a1-6)]Man(a1-6)[Man(a1-3)]Man(b1-4)GlcNAc(b1-4)GlcNAc
# In short: as §1
# [26] = target: Man(a1-3)[Man(a1-6)]Man(b1-4)GlcNAc(b1-4)GlcNAc
# In short: as §1
# [27] = target: Man(a1-3)[Man(a1-6)]Man(b1-4)GlcNAc(b1-4)[Fuc(a1-6)]GlcNAc
# In short: as §1
# [28] = target: Man(a1-6)Man
# In short: as §1
# [29] = target: Man(b1-4)GlcNAc
# In short: as §1
# [30] = target: MurNAc(b1-4)GlcNAc
# In short: as §1
# [31] = target: Neu5Ac(a2-3)Gal
# In short: as §1
# [32] = target: Neu5Ac(a2-3)Gal(b1-3)GalNAc
# In short: as §1
# [33] = target: Neu5Ac(a2-3)Gal(b1-3)GalNAc(b1-3)Gal(a1-4)Gal(b1-4)Glc
# In short: as §1
# [34] = target: Neu5Ac(a2-3)Gal(b1-3)GalNAc(b1-4)[Neu5Ac(a2-3)]Gal(b1-4)Glc
# In short: as §1
# [35] = target: Neu5Ac(a2-3)Gal(b1-3)GalNAc(b1-4)[Neu5Ac(a2-8)Neu5Ac(a2-3)]Gal(b1-4)Glc
# In short: as §1
# [36] = target: Neu5Ac(a2-3)Gal(b1-3)GalNAc6S
# In short: as §1
# [37] = target: Neu5Ac(a2-3)Gal(b1-3)GlcNAc
# In short: as §1
binder,measurement,setting,value
B1,glycan array binding signal (z-score),[1],-0.164
same,glycan array binding signal (z-score),[2],-0.276
same,glycan array binding signal (z-score),[3],-0.124
same,glycan array binding signal (z-score),[4],0.274
same,glycan array binding signal (z-score),[5],-0.232
same,glycan array binding signal (z-score),[6],0.938
same,glycan array binding signal (z-score),[7],-0.317
same,glycan array binding signal (z-score),[8],-0.154
same,glycan array binding signal (z-score),[9],-0.263
same,glycan array binding signal (z-score),[10],-0.242
same,glycan array binding signal (z-score),[11],-0.191
same,glycan array binding signal (z-score),[12],-0.246
same,glycan array binding signal (z-score),[13],-0.134
same,glycan array binding signal (z-score),[14],-0.204
same,glycan array binding signal (z-score),[15],-0.232
same,glycan array binding signal (z-score),[16],-0.268
same,glycan array binding signal (z-score),[17],-0.233
same,glycan array binding signal (z-score),[18],-0.196
same,glycan array binding signal (z-score),[19],-0.258
same,glycan array binding signal (z-score),[20],-0.27
same,glycan array binding signal (z-score),[21],-0.219
same,glycan array binding signal (z-score),[22],-0.123
same,glycan array binding signal (z-score),[23],-0.22
same,glycan array binding signal (z-score),[24],-0.232
same,glycan array binding signal (z-score),[25],-0.21
same,glycan array binding signal (z-score),[26],-0.225
same,glycan array binding signal (z-score),[27],-0.198
same,glycan array binding signal (z-score),[28],-0.207
same,glycan array binding signal (z-score),[29],-0.172
same,glycan array binding signal (z-score),[30],-0.274
same,glycan array binding signal (z-score),[31],-0.238
same,glycan array binding signal (z-score),[32],-0.185
same,glycan array binding signal (z-score),[33],-0.203
same,glycan array binding signal (z-score),[34],-0.24
same,glycan array binding signal (z-score),[35],-0.238
same,glycan array binding signal (z-score),[36],-0.246
same,glycan array binding signal (z-score),[37],-0.163
